The supplement of paper PMC8728848
The list shows a part of the results.

How the values were obtained:
Assay in all cases: glycan array binding signal (z-score within array); higher = stronger binding
Details in all cases: glycan notation: IUPAC condensed, linker removed
Gal(a1-6)Glc = biological target: Gal(a1-6)Glc
Procedure, shortened: (§1)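 Columns mapping to the same glycan were averaged after glycan names were converted to IUPAC-condensed notation. The data come from 3228 arrays in the Consortium for Functional Glycomics database, limited to those with an available protein sequence. Binding is reported as a within-array Z-score averaged across arrays of one protein sequence and across linkers.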

Gal(b1-2)Gal = biological target: Gal(b1-2)Gal
Procedure, shortened: as §1

Gal(b1-3)Gal = biological target: Gal(b1-3)Gal
Procedure, shortened: as §1

Gal(b1-3)Gal(b1-4)GlcNAc = biological target: Gal(b1-3)Gal(b1-4)GlcNAc
Procedure, shortened: as §1

Gal(b1-3)GalNAc = biological target: Gal(b1-3)GalNAc
Procedure, shortened: as §1

[1] = biological target: Gal(b1-3)GalNAc(a1-3)[Fuc(a1-2)]Gal(b1-4)Glc
Procedure, shortened: as §1

[2] = biological target: Gal(b1-3)GalNAc(a1-3)[Fuc(a1-2)]Gal(b1-4)GlcNAc
Procedure, shortened: as §1

Gal(b1-3)GalNAc(b1-3)Gal = biological target: Gal(b1-3)GalNAc(b1-3)Gal
Procedure, shortened: as §1

[3] = biological target: Gal(b1-3)GalNAc(b1-3)Gal(a1-4)Gal(b1-4)Glc
Procedure, shortened: as §1

[4] = biological target: Gal(b1-3)GalNAc(b1-4)Gal(b1-4)Glc
Procedure, shortened: as §1

[5] = biological target: Gal(b1-3)GalNAc(b1-4)[Neu5Ac(a2-3)]Gal(b1-4)Glc
Procedure, shortened: as §1

Gal(b1-3)GlcNAc = biological target: Gal(b1-3)GlcNAc
Procedure, shortened: as §1

[6] = biological target: Gal(b1-3)GlcNAc(a1-3)Gal(b1-4)GlcNAc
Procedure, shortened: as §1

[7] = biological target: Gal(b1-3)GlcNAc(a1-6)Gal(b1-4)GlcNAc
Procedure, shortened: as §1

Gal(b1-3)GlcNAc(b1-2)Man = biological target: Gal(b1-3)GlcNAc(b1-2)Man
Procedure, shortened: as §1

[8] = biological target: Gal(b1-3)GlcNAc(b1-2)Man(a1-3)[Gal(b1-3)GlcNAc(b1-2)Man(a1-6)]Man(b1-4)GlcNAc(b1-4)GlcNAc
Procedure, shortened: as §1

[9] = biological target: Gal(b1-3)GlcNAc(b1-2)Man(a1-3)[Gal(b1-3)GlcNAc(b1-2)Man(a1-6)]Man(b1-4)GlcNAc(b1-4)[Fuc(a1-6)]GlcNAc
Procedure, shortened: as §1

[10] = biological target: Gal(b1-3)GlcNAc(b1-2)Man(a1-3)[GlcNAc(b1-4)][Gal(b1-3)GlcNAc(b1-2)Man(a1-6)]Man(b1-4)GlcNAc(b1-4)GlcNAc
Procedure, shortened: as §1

[11] = biological target: Gal(b1-3)GlcNAc(b1-2)[Gal(b1-3)GlcNAc(b1-6)]Man(a1-6)[Gal(b1-3)GlcNAc(b1-2)Man(a1-3)]Man(b1-4)GlcNAc(b1-4)GlcNAc
Procedure, shortened: as §1

[12] = biological target: Gal(b1-3)GlcNAc(b1-3)Gal(b1-3)GlcNAc
Procedure, shortened: as §1

[13] = biological target: Gal(b1-3)GlcNAc(b1-3)Gal(b1-4)Glc
Procedure, shortened: as §1

[14] = biological target: Gal(b1-3)GlcNAc(b1-3)Gal(b1-4)GlcNAc
Procedure, shortened: as §1

[15] = biological target: Gal(b1-3)GlcNAc(b1-3)Gal(b1-4)GlcNAc(b1-2)Man(a1-3)[Gal(b1-3)GlcNAc(b1-3)Gal(b1-4)GlcNAc(b1-2)Man(a1-6)]Man(b1-4)GlcNAc(b1-4)GlcNAc
Procedure, shortened: as §1

[16] = biological target: Gal(b1-3)GlcNAc(b1-3)Gal(b1-4)GlcNAc(b1-2)[Gal(b1-3)GlcNAc(b1-3)Gal(b1-4)GlcNAc(b1-6)]Man(a1-6)[Gal(b1-3)GlcNAc(b1-3)Gal(b1-4)GlcNAc(b1-2)Man(a1-3)]Man(b1-4)GlcNAc(b1-4)[Fuc(a1-6)]GlcNAc
Procedure, shortened: as §1

[17] = biological target: Gal(b1-3)GlcNAc(b1-3)Gal(b1-4)GlcNAc(b1-3)Gal(b1-4)GlcNAc(b1-2)[Gal(b1-3)GlcNAc(b1-3)Gal(b1-4)GlcNAc(b1-3)Gal(b1-4)GlcNAc(b1-6)]Man(a1-6)[Gal(b1-3)GlcNAc(b1-3)Gal(b1-4)GlcNAc(b1-3)Gal(b1-4)GlcNAc(b1-2)Man(a1-3)]Man(b1-4)GlcNAc(b1-4)[Fuc(a1-6)]GlcNAc
Procedure, shortened: as §1

[18] = biological target: Gal(b1-3)GlcNAc(b1-3)Gal(b1-4)GlcNAc(b1-6)[Gal(b1-3)GlcNAc(b1-3)]Gal(b1-4)Glc
Procedure, shortened: as §1

[19] = biological target: Gal(b1-3)GlcNAc(b1-3)Gal(b1-4)[Fuc(a1-3)]GlcNAc
Procedure, shortened: as §1

[20] = biological target: Gal(b1-3)GlcNAc(b1-3)Gal(b1-4)[Fuc(a1-3)]GlcNAc(b1-6)[Gal(b1-3)GlcNAc(b1-3)]Gal(b1-4)Glc
Procedure, shortened: as §1

[21] = biological target: Gal(b1-3)GlcNAc(b1-3)GalNAc
Procedure, shortened: as §1

[22] = biological target: Gal(b1-3)GlcNAc(b1-6)Gal(b1-4)GlcNAc
Procedure, shortened: as §1

[23] = biological target: Gal(b1-3)GlcNAc(b1-6)GalNAc
Procedure, shortened: as §1

[24] = biological target: Gal(b1-3)GlcNAc(b1-6)[Gal(b1-3)]GalNAc
Procedure, shortened: as §1

Gal(b1-3)GlcNAc6S = biological target: Gal(b1-3)GlcNAc6S
Procedure, shortened: as §1

[25] = biological target: Gal(b1-3)[Fuc(a1-4)]GlcNAc
Procedure, shortened: as §1

[26] = biological target: Gal(b1-3)[Fuc(a1-4)]GlcNAc(b1-2)Man
Procedure, shortened: as §1

[27] = biological target: Gal(b1-3)[Fuc(a1-4)]GlcNAc(b1-2)Man(a1-3)[Gal(b1-3)[Fuc(a1-4)]GlcNAc(b1-2)Man(a1-6)]Man(b1-4)GlcNAc(b1-4)[Fuc(a1-6)]GlcNAc
Procedure, shortened: as §1

[28] = biological target: Gal(b1-3)[Fuc(a1-4)]GlcNAc(b1-3)Gal(b1-3)[Fuc(a1-4)]GlcNAc
Procedure, shortened: as §1

[29] = biological target: Gal(b1-3)[Fuc(a1-4)]GlcNAc(b1-3)Gal(b1-4)[Fuc(a1-3)]GlcNAc
Procedure, shortened: as §1

[30] = biological target: Gal(b1-3)[Fuc(a1-4)]GlcNAc(b1-6)GalNAc
Procedure, shortened: as §1

[31] = biological target: Gal(b1-3)[GlcNAc(b1-6)]GalNAc
Procedure, shortened: as §1

[32] = biological target: Gal(b1-3)[Neu5Ac(a2-6)]GalNAc
Procedure, shortened: as §1

[33] = biological target: Gal(b1-3)[Neu5Ac(a2-6)]GlcNAc(b1-4)Gal(b1-4)Glc
Procedure, shortened: as §1

[34] = biological target: Gal(b1-3)[Neu5Ac(b2-6)]GalNAc
Procedure, shortened: as §1

Gal(b1-4)Gal = biological target: Gal(b1-4)Gal
Procedure, shortened: as §1

[35] = biological target: Gal(b1-4)GalNAc(a1-3)[Fuc(a1-2)]Gal(b1-4)GlcNAc
Procedure, shortened: as §1

B1: SSR2 (Sclerotium rolfsii) (protein)
chain: MVYKITVRVYQTNPDAFFHPVEKTVWKYANGGTWSITDDQHVLTMGGSGTSGTLRFHADNGESFTATFGVHNYKRWCDIVTNLAADETGMVINQQYYSQKNREEARERQLSNYQVKNAKGRNFQIVYTEAEGNDLHANLIIG
- glycan array binding signal (z-score) (Gal(a1-6)Glc): -0.281
- glycan array binding signal (z-score) (Gal(b1-2)Gal): -0.253
- glycan array binding signal (z-score) (Gal(b1-3)Gal): -0.283
- glycan array binding signal (z-score) (Gal(b1-3)Gal(b1-4)GlcNAc): -0.282
- glycan array binding signal (z-score) (Gal(b1-3)GalNAc): 1.48
- glycan array binding signal (z-score) [1]: 3.93
- glycan array binding signal (z-score) [2]: 2.96
- glycan array binding signal (z-score) (Gal(b1-3)GalNAc(b1-3)Gal): -0.275
- glycan array binding signal (z-score) [3]: -0.284
- glycan array binding signal (z-score) [4]: -0.292
- glycan array binding signal (z-score) [5]: -0.295
- glycan array binding signal (z-score) (Gal(b1-3)GlcNAc): -0.273
- glycan array binding signal (z-score) [6]: -0.278
- glycan array binding signal (z-score) [7]: -0.287
- glycan array binding signal (z-score) (Gal(b1-3)GlcNAc(b1-2)Man): -0.285
- glycan array binding signal (z-score) [8]: -0.281
- glycan array binding signal (z-score) [9]: -0.274
- glycan array binding signal (z-score) [10]: -0.277
- glycan array binding signal (z-score) [11]: -0.286
- glycan array binding signal (z-score) [12]: -0.279
- glycan array binding signal (z-score) [13]: -0.287
- glycan array binding signal (z-score) [14]: -0.28
- glycan array binding signal (z-score) [15]: -0.271
- glycan array binding signal (z-score) [16]: -0.221
- glycan array binding signal (z-score) [17]: -0.219
- glycan array binding signal (z-score) [18]: -0.289
- glycan array binding signal (z-score) [19]: -0.292
- glycan array binding signal (z-score) [20]: -0.286
- glycan array binding signal (z-score) [21]: -0.28
- glycan array binding signal (z-score) [22]: -0.291
- glycan array binding signal (z-score) [23]: -0.282
- glycan array binding signal (z-score) [24]: 1.3
- glycan array binding signal (z-score) (Gal(b1-3)GlcNAc6S): -0.269
- glycan array binding signal (z-score) [25]: -0.283
- glycan array binding signal (z-score) [26]: -0.286
- glycan array binding signal (z-score) [27]: -0.243
- glycan array binding signal (z-score) [28]: -0.272
- glycan array binding signal (z-score) [29]: -0.285
- glycan array binding signal (z-score) [30]: -0.288
- glycan array binding signal (z-score) [31]: 2.08
- glycan array binding signal (z-score) [32]: 0.059
- glycan array binding signal (z-score) [33]: -0.276
- glycan array binding signal (z-score) [34]: -0.169
- glycan array binding signal (z-score) (Gal(b1-4)Gal): -0.288
- glycan array binding signal (z-score) [35]: -0.279
